Some of the results follow. Binding of human antibodies (heavy:light variable regions, tested as scFv in one mRNA-display pool) to influenza hemagglutinin, with or without the stem antibody CR9114 bound first. Score = (mean enrichment − median) / interquartile range of that screen; higher = more enriched, 0 = typical non-binder. Active = above the paper's cut-off per screen: stems 28; unblocked H1 Solomon Islands 5, H1 Michigan 3, H3 5, H5 19, H7 2.85, both B 5; blocked 9, 7, H5 10, H7 10, B Phuket 10, B Lee 11.5. Scores are scaled within each screen and are no affinities; replicates correlate at about 0.6 to 0.9, and antibodies rare in the pool are noisier.
B1: 01.m.01 (protein)
chain 1: EVQLVESGGGLVQPGWSLRLSCAASGFTFDSHAMHWVRQTPGKGLEWVSGITWSSNEVGYADSVKGRFTTSRDNAKNSLYLQMNSLRLEDTALYYCTTAGGKGNWGRDDYWGQGTLVTVSS
chain 2: DIHMTQSPSSLSASVGDRVTITCRASQGIRSYLAWYQQKPGKAPKLLIYAASTLQSGVPSRFSGSGSGTDFTLTISSLQPEDFATYYCQQVDDYPYLFAQGTKLEIK
B2: K77-1G08 (protein)
chain 1: LVQPQESGPGLVKPSETLSLTCTVSNGSISSGNFYWGWIRQPPGKGLEWLGAIYYTGITYYSPSLKRRLTISVDTSMNQFSLRLNSVTAADTAVYYCARDLAPYYYGSGTFYNIFDHWGQGTLITVSS
chain 2: QSALTQPPSVSAAPGQRVTISCSGSRSNIGNYYVSWYQQFPGTAPKLLIYDNDKRPSGIPDRFSGSKSGTSATLGITGLQTGDEADYYCGTWDSSLSAHVIFGGGTKLTVL
B3: C6-2-D02 (protein)
chain 1: VQLVESGGGLVQPGGSLRLSCAASGFTFNTHLMYWVRQAPGKGLEWVSLISPAGRNKFYADSVRARFTISRVNSRNTLYLQIDTVRPEDTAVYYCATRSVGATGYLSWGPKDYSYNDVDVWGQGTTVTVSS
chain 2: DIQMTQSPSSLSASVGDTVTIACRASQGIRSDLGWYQQQAGKAPRRLIYGASSLQSGVPSRFSGSGSGTEFTLTISSLQPEDFATYYCLQHNSYPWTFGQGTKVEIK
B4: 009-10-1G06 (protein)
chain 1: EVQLVETGGGLIQPGGSLRLSCTASKFTVSINYMSWVRQTPGKGLEWVSIIYDDGSTFYADSVRGRFTISRDNSKNTIYLQMNSLRADDTAVYYCARDPGMRGYFDHWGQGTLVTVSS
chain 2: QSVLTQPPSVSGAPGQRVAISCTGSSSNIGAGYDVHWYQQLPGTAPKLLIYDNNSRPSGVPDRFSGSKSGTSASLAITGLQAEDEADYYCQSYDSGVSGYVFGTGTKVTVL
B5: K77-2A03 (protein)
chain 1: LVQLQESGPGLVKPSETLSLTCTVSGGSISSSTYYWGWIRQPPGKGLEWIGSIYYTGDTYYNPSLKSRVTISVDSSKNQFSLKLSSLTAADTAVYYCARERAWLRGPFDFWGRGTLVTVSS
chain 2: DIVMTQSPDSLAVSLGERATINCKSSQSILFSSYNKNHLAWYQQKPGQPPKLLIYWASTRESGVPDRFSGSGSGTDFTLTISSLQAEDVAVYFCQQYYSPPSFTFGQGTKLEIK
B6: C6-2-C01 (protein)
chain 1: VQLVESGGGLVKPGASLRLSCVGSGFIFSNAWMNWVRQAPGKGLEWVGRMKIYTDGGTTDYAAPVKGRFTISRDDSKNTLYLQMSSLKTEDTAMYYCVTDFSGRRPYWGQGTLVTVSS
chain 2: DIQMTQSPSTLSASVGDRVTITCRASQRISNWLAWYQQKPGKAPKLLIYEASTLESGVPSRFSGSGSGTEFTLTINSLQPDDFATYYCQLYNDYSGFTFGPGTKVDIK

Target: Influenza A H1N1 A/Michigan/45/2015 hemagglutinin ectodomain
Experiment: mRNA display binding score; higher = more enriched on the antigen
Conditions: antigen blocked with: 2 µM CR9114 IgG
Experimental: (§1)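 A pool of natively paired antibodies, displayed as scFv on mRNA, was selected once on antigen-coated beads and sequenced before and after; two replicates.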

Q: B1 was tested. Which “mRNA display binding score” value did it give?
A: inactive: -0.0314

Q: For B2, which “mRNA display binding score” value is on record?
A: inactive: -0.583

Q: For B3, which “mRNA display binding score” value is on record?
A: inactive: 0.292

Q: With B4 as the binder, how does the “mRNA display binding score” value read?
A: active: 152

Q: How did the “mRNA display binding score” value turn out when B5 was run?
A: inactive: 1.16

Q: B6 was tested. Which “mRNA display binding score” value did it give?
A: inactive: 0.311

Same assay, conditions: antigen blocked with: nothing

Q: B1 was tested. Which “mRNA display binding score” value did it give?
A: inactive: 0.424

Q: Which “mRNA display binding score” value does the source give for B2 here?
A: inactive: -0.332

Q: For B3, which “mRNA display binding score” value is on record?
A: inactive: 1.3

Q: For B4, which “mRNA display binding score” value is on record?
A: active: 12.3

Q: With B5 as the binder, how does the “mRNA display binding score” value read?
A: inactive: 1.95

Q: B6 was tested. Which “mRNA display binding score” value did it give?
A: inactive: -0.0639

Target: Influenza A H1N1 A/Solomon Islands/3/2006 hemagglutinin ectodomain
Experiment: as above
Conditions: antigen blocked with: 2 µM CR9114 IgG
Experimental: as §1

Q: B1 was tested. Which “mRNA display binding score” value did it give?
A: inactive: 0.00589

Q: For B2, which “mRNA display binding score” value is on record?
A: inactive: -0.508

Q: How did the “mRNA display binding score” value turn out when B3 was run?
A: inactive: -0.00443

Q: How did the “mRNA display binding score” value turn out when B4 was run?
A: active: 33.3

Q: Which “mRNA display binding score” value does the source give for B5 here?
A: inactive: 1.92

Q: With B6 as the binder, how does the “mRNA display binding score” value read?
A: active: 84.3

Same assay, conditions: antigen blocked with: nothing

Q: With B1 as the binder, how does the “mRNA display binding score” value read?
A: inactive: -0.0466

Q: For B2, which “mRNA display binding score” value is on record?
A: inactive: -0.197

Q: Which “mRNA display binding score” value does the source give for B3 here?
A: inactive: 0.37

Q: B4 was tested. Which “mRNA display binding score” value did it give?
A: active: 31.9

Q: With B5 as the binder, how does the “mRNA display binding score” value read?
A: inactive: 1.09

Q: How did the “mRNA display binding score” value turn out when B6 was run?
A: active: 75.4

Target: Influenza A H3N2 A/Singapore/INFIMH-16-0019/2016 hemagglutinin ectodomain
Experiment: as above
Conditions: antigen blocked with: nothing
Experimental: as §1

Q: B1 was tested. Which “mRNA display binding score” value did it give?
A: inactive: 0.188

Q: How did the “mRNA display binding score” value turn out when B2 was run?
A: inactive: -0.333

Q: Which “mRNA display binding score” value does the source give for B3 here?
A: inactive: 0.855

Q: B4 was tested. Which “mRNA display binding score” value did it give?
A: inactive: -0.234

Q: B5 was tested. Which “mRNA display binding score” value did it give?
A: inactive: 1.42

Q: B6 was tested. Which “mRNA display binding score” value did it give?
A: inactive: 0.395

Target: Influenza A H5N1 A/Qinghai/1A/2005 hemagglutinin ectodomain
Experiment: as above
Conditions: antigen blocked with: 2 µM CR9114 IgG
Experimental: as §1

Q: With B1 as the binder, how does the “mRNA display binding score” value read?
A: inactive: 0.0776

Q: How did the “mRNA display binding score” value turn out when B2 was run?
A: inactive: -0.494

Q: For B3, which “mRNA display binding score” value is on record?
A: inactive: 0.558

Q: B4 was tested. Which “mRNA display binding score” value did it give?
A: inactive: 2.42

Q: How did the “mRNA display binding score” value turn out when B5 was run?
A: inactive: 0.381

Q: With B6 as the binder, how does the “mRNA display binding score” value read?
A: inactive: 0.0619

Same assay, conditions: antigen blocked with: nothing

Q: B1 was tested. Which “mRNA display binding score” value did it give?
A: inactive: -0.278

Q: Which “mRNA display binding score” value does the source give for B2 here?
A: inactive: -0.542

Q: For B3, which “mRNA display binding score” value is on record?
A: inactive: 0.519

Q: How did the “mRNA display binding score” value turn out when B4 was run?
A: inactive: 1.34

Q: Which “mRNA display binding score” value does the source give for B5 here?
A: inactive: 0.668

Q: Which “mRNA display binding score” value does the source give for B6 here?
A: inactive: -0.145

Target: Influenza A H7N9 A/Shanghai/2/2013 hemagglutinin ectodomain
Experiment: as above
Conditions: antigen blocked with: 2 µM CR9114 IgG
Experimental: as §1

Q: How did the “mRNA display binding score” value turn out when B1 was run?
A: inactive: 0.022

Q: For B2, which “mRNA display binding score” value is on record?
A: inactive: -0.365

Q: For B3, which “mRNA display binding score” value is on record?
A: inactive: 0.231

Q: For B4, which “mRNA display binding score” value is on record?
A: inactive: 1.04

Q: B5 was tested. Which “mRNA display binding score” value did it give?
A: inactive: 0.767

Q: Which “mRNA display binding score” value does the source give for B6 here?
A: inactive: 0.045

Same assay, conditions: antigen blocked with: nothing

Q: Which “mRNA display binding score” value does the source give for B1 here?
A: inactive: 0.411

Q: Which “mRNA display binding score” value does the source give for B2 here?
A: inactive: -0.379

Q: How did the “mRNA display binding score” value turn out when B3 was run?
A: inactive: 1.47

Q: B4 was tested. Which “mRNA display binding score” value did it give?
A: inactive: 0.242

Q: Which “mRNA display binding score” value does the source give for B5 here?
A: inactive: 2.19

Q: For B6, which “mRNA display binding score” value is on record?
A: inactive: -0.153

Target: Influenza B/Lee/1940 hemagglutinin ectodomain
Experiment: as above
Conditions: antigen blocked with: 2 µM CR9114 IgG
Experimental: as §1

Q: B1 was tested. Which “mRNA display binding score” value did it give?
A: inactive: -0.154

Q: With B2 as the binder, how does the “mRNA display binding score” value read?
A: inactive: 0.305

Q: How did the “mRNA display binding score” value turn out when B3 was run?
A: inactive: -0.307

Q: For B4, which “mRNA display binding score” value is on record?
A: inactive: 0.118

Q: With B5 as the binder, how does the “mRNA display binding score” value read?
A: inactive: 0.611

Q: With B6 as the binder, how does the “mRNA display binding score” value read?
A: inactive: -1.01

Same assay, conditions: antigen blocked with: nothing

Q: Which “mRNA display binding score” value does the source give for B1 here?
A: inactive: -0.384

Q: For B2, which “mRNA display binding score” value is on record?
A: inactive: 2.67

Q: B3 was tested. Which “mRNA display binding score” value did it give?
A: inactive: 0.0637

Q: B4 was tested. Which “mRNA display binding score” value did it give?
A: inactive: 0.585

Q: For B5, which “mRNA display binding score” value is on record?
A: inactive: 0.155

Q: How did the “mRNA display binding score” value turn out when B6 was run?
A: inactive: -0.0164

Target: Influenza B/Phuket/3073/2013 hemagglutinin ectodomain
Experiment: as above
Conditions: antigen blocked with: 2 µM CR9114 IgG
Experimental: as §1

Q: With B1 as the binder, how does the “mRNA display binding score” value read?
A: inactive: 0.0928

Q: B2 was tested. Which “mRNA display binding score” value did it give?
A: inactive: 1.23

Q: For B3, which “mRNA display binding score” value is on record?
A: inactive: 0.276

Q: How did the “mRNA display binding score” value turn out when B4 was run?
A: inactive: 0.196

Q: B5 was tested. Which “mRNA display binding score” value did it give?
A: inactive: 0.643

Q: How did the “mRNA display binding score” value turn out when B6 was run?
A: inactive: -0.256

Same assay, conditions: antigen blocked with: nothing

Q: Which “mRNA display binding score” value does the source give for B1 here?
A: inactive: -0.251

Q: With B2 as the binder, how does the “mRNA display binding score” value read?
A: inactive: -0.0293

Q: B3 was tested. Which “mRNA display binding score” value did it give?
A: inactive: 0.237

Q: B4 was tested. Which “mRNA display binding score” value did it give?
A: inactive: 0.384

Q: For B5, which “mRNA display binding score” value is on record?
A: inactive: 0.248

Q: Which “mRNA display binding score” value does the source give for B6 here?
A: inactive: -0.019
